± gives the standard deviation of the averaged measurements.
B1: VDAC2; numbered along this chain (parent)
chain: MATHGQTCARPMCIPPSYADLGKAARDIFNKGFGFGLVKLDVKTKSCSGVEFSTSGSSNTDTGKVTGTLETKYKWCEYGLTFTEKWNTDNTLGTEIAIEDQICQGLKLTFDTTFSPNTGKKSGKIKSSYKRECINLGCDVDFDFAGPAIHGSAVFGYEGWLAGYQMTFDSAKSKLTRNNFAVGYRTGDFQLHTNVNDGTEFGGSIYQKVCEDLDTSVNLAWTSGTNCTRFGIAAKYQLDPTASISAKVNNSSLIGVGYTQTLRPGVKLTLSALVDGKSINAGGHKVGLALELEA

Variants of: B1
Assay: log2 fold difference of barcode abundance, FLAG-VDAC2-high vs FLAG-VDAC2-low sorted fraction (expression level) (log2 ratio); higher = higher VDAC2 variant expression
Conditions: Mcl1-/- Bax-/- Vdac2-/- MEF
Protocol: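 Deep mutational scan of human VDAC2 (FLAG-tagged) with single amino acid substitutions at positions Q165–F180, each barcoded clone expressed in Mcl1/Bax/Vdac2-deficient MEFs. Cells were stained with PE anti-FLAG and sorted into FLAG-high and FLAG-low fractions, and barcodes were counted by Illumina sequencing. The score is log2(CPM) in FLAG-high minus log2(CPM) in FLAG-low, per barcode; barcodes of the same variant are averaged.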

log2 fold difference, by site and new letter:
N178: H 1.33 ± 2 | E 0.543 ± 2.4 | Y 0.758 ± 1.1 | A 0.888 ± 1.9 | W 1.85 ± 2.3 | M 1.31 ± 1.9 | P 0.19 ± 1.4 | Q 1.94 ± 2.2 | I 0.42 ± 1.3 | K 0.827 ± 1.8 | S 1.76 ± 2.4 | R 1.35 ± 1.8 | T 1.35 ± 2 | C 1.12 ± 1.1 | V 1.82 ± 1.9 | G 0.838 ± 2.2 | L 0.926 ± 2 | F 1.21 ± 2.4 | D 0.592 ± 2.2
R177: A 0.751 ± 1.6 | Q 0.118 ± 0.59 | M -0.0113 ± 0.79 | I 0.478 ± 1.7 | P -0.195 ± 1.9 | L 1.44 ± 2 | F 0.483 ± 1.8 | G 1.21 ± 1.8 | Y 2.41 ± 2.1 | V 0.985 ± 1.6 | K 2.21 ± 0.98 | C 1.1 ± 1.6 | D 0.965 ± 2.1 | N 1.36 ± 1.6 | E 1.85 ± 2 | T 1.86 ± 2.2 | S 1.35 ± 1.6 | W 0.158 ± 2 | H 1.53 ± 2.1
Q165: P -1.97 ± 2 | N 1.85 ± 2.4 | E 1.93 ± 2.5 | V 0.91 ± 2 | A 0.624 ± 1.8 | W 0.623 ± 1.6 | K 2.95 ± 2.8 | L 1.41 ± 2.4 | C 1.08 ± 1.3 | S 1.78 ± 1.9 | Y 2.98 ± 1.9 | R 1.24 ± 1.1 | G 0.675 ± 2.1 | T 1.2 ± 1.9 | I -0.0417 ± 1 | M 1.64 ± 1.4 | F 1.17 ± 1.5 | D 1.62 ± 1.7 | H 2.68 ± 2.7
A171: T 1.99 ± 2.4 | Y 2.38 ± 3.1 | E 1.16 ± 1.4 | H 0.0673 ± 2.3 | C 0.968 ± 2 | P 0.948 ± 1.5 | Q 1.46 ± 1 | K 0.16 ± 2.5 | I 1.09 ± 1.3 | G 1.02 ± 1.8 | R 1.46 ± 2 | D 1.36 ± 1.8 | V 1.81 ± 1.9 | F 0.745 ± 1.3 | S 1.59 ± 2.1 | M 2.53 ± 0.83 | N 0.899 ± 1.6 | W 0.123 ± 1.5 | L 0.546 ± 2

Reference: the supplement of paper PMC11098506
